Measurements published in publication PMC6212790.
This is one part of the list. At the low end of the ranking, values are background and their order means little.

target: T1, GST-Rok-C97-191 (UniProt O34857); assay: protein binding microarray; conditions: Rok is a gene silencer of Bacillus subtilis; high values mean tight binding; most listed sequences are background and not binding sites; double strand, one strand shown;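 also: rank score from −0.5 (least bound) to 0.5 (best bound)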
T1 sequence: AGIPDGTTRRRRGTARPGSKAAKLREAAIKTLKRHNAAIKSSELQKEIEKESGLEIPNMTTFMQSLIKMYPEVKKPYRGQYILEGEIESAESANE

Sequence	binding signal [E-score]
AAAATCCC	0.00514
AGTGAGTG	-0.0687
CTCACGAA	-0.062
CCGTATTA	0.172
GGCCCGCA	-0.219
GGGGTAGA	0.156
CAGGAAAC	0.103
AACCACAA	-0.0553
CATCCCCA	-0.111
GGCCCTTA	-0.222
CCGTCGGA	-0.101
AACCCCTG	-0.151
CCAGTCTA	-0.0781
CATCGAAC	-0.135
GTGACGTA	-0.169
GAAGCCGC	-0.35
ATACGTGG	-0.105
GGTCGTTA	0.0571
CAAAACAC	-0.159
CTGCAAGC	-0.228
AACTAGTC	0.0892
CAGGCGCA	-0.202
ACATACCT	0.27
ATAAAACC	0.208
ATGACCGC	-0.102

Sequence	binding signal [E-score]
CTATTCCA	-0.0229
CAACTTCG	0.00642
CTCTTCAC	-0.0517
GTCCGGAA	-0.0863
ATCGAATG	0.0472
CCGCCGGC	-0.4
CCGCCCAC	-0.216
AGAGCTTC	-0.253
ACTTCAAT	0.0342
CCGTAGAA	0.289
AAGGCGCC	-0.282
CGTGATAA	0.219
ATAAGTGG	0.202
CAGAGGTA	0.0944
ATCTTTTC	0.076
AACTCATG	-0.00495
ACGTGCAT	-0.0397
TCGAACCA	0.00396
GGGGATGA	-0.204
ATGCCAAG	-0.16
CCCGGGTC	-0.334
CAAGCTGC	-0.171
TTCAGCAA	-0.13
CGTGCTTC	0.0493
GGGGCCCA	-0.336

Sequence	binding signal [E-score]
AAAGGGAA	-0.091
CACGTTAA	0.136
AGCGCATA	0.231
ATCTAGAG	0.0411
AACTAAAC	0.00571
GCACGTAA	-0.139
ATAGGTTA	0.162
ACTCATAG	-0.144
CCCAGCGA	-0.182
TTAATGAA	0.086
ATTCGGTA	0.317
ATATTGGC	-0.00167
GCGATGCA	-0.135
GACTTCTC	0.0676
CACCACCA	-0.257
ACCATCTC	-0.0625
GAACCTTA	-0.0663
GAGATCGA	-0.0169
GAAGATCC	-0.193
CCGAATTA	0.223
AGGACGAG	-0.295
TAAGCTTA	0.0724
GGTTTGGA	-0.0233
CATTAAGA	-0.0232
CCATAGGG	-0.215

Sequence	binding signal [E-score]
GGAGCCGA	-0.122
AATTTTTC	0.0422
ACACGTGA	-0.0605
AATGGTAG	0.441
AATGATCG	-0.0194
CCTATAGC	-0.0524
GCGAGGAC	-0.254
CCTCGCTA	-0.0957
CAAACGGG	-0.143
AATATATC	0.424
AACCCCCC	-0.253
GCTGTCCC	-0.151
CCCTCTCC	-0.322
CCCTGACG	-0.285
GAACCGCA	0.0149
ACAATTCC	0.14
GGAACGTA	0.0118
AGGGGACC	-0.326
GCGCCCTA	-0.153
CGTAGAGA	0.0853
CGGCATCA	-0.134
CAACGCTA	0.0222
AGCAGACT	-0.0772
GTACGAAA	0.156
AATGGCGG	-0.112

Sequence	binding signal [E-score]
ACAGATAA	0.209
CAAGACGC	-0.162
GAGCCCAA	-0.17
GCTTGCGA	-0.104
GCGGCAGC	-0.314
CCGCACTA	0.0974
CTCCTCAG	-0.365
AGAATGTA	0.244
ACCTTTGC	-0.116
AGTCCGCG	-0.0669
GGATATGA	0.131
GGTGGCAA	-0.0889
AGTGATAA	0.201
AAACGGGT	0.00354
CAAACGCA	-0.121
ACGTGGAA	-0.198
CTACGTAG	0.291
CGTCGACG	-0.308
ACGTTGGA	-0.105
AAATGAGG	-0.0116
TAAGAGCA	-0.00935
ACGCTCCA	-0.142
CTCATTCA	-0.0696
ACACGTCG	-0.0369
CCAACCTC	-0.206

Sequence	binding signal [E-score]
AGATGTAA	0.191
ATGGCGGG	-0.184
CGTCAAAC	-0.0621
GCTGCTTA	-0.133
GATGAGAA	0.0291
CAGCTTGA	-0.0891
AGGGTGAC	-0.321
TCACCGAA	-0.153
GTGATCTA	0.0717
ATAAACTA	0.359
ATCCGCTA	0.175
ATATCTCC	0.27
CGGTCTTC	-0.223
TGAACTCA	-0.127
GTACTCAA	-0.0487
ACAAGGAT	0.0455
GGTGTCAA	0.0604
GCAGGCGA	-0.121
ATGGTCTG	-0.205
AAACCATT	0.0833
CACGTCAC	0.0309
AGGGTTTC	-0.0738
GAGAAGGA	-0.326
AGTTGGAA	-0.0261
ATAGTTGA	0.215

Sequence	binding signal [E-score]
CTGGGTAA	0.0335
AAGAGTCA	-0.165
CCACCAGG	-0.135
ATGGACCC	-0.138
ATACACGA	0.0518
ATAGGCAA	-0.102
GTAGAGCA	-0.0886
GCAGGACA	-0.143
TAGCCGAA	-0.0139
AGCTGGGG	-0.121
GCCCCGGA	-0.457
ACTGGACG	-0.00182
CGCTGGCA	-0.178
AGCTGGTA	0.183
CCACCGAA	-0.0537
TACTCTGA	-0.259
GCGGGAGA	-0.111
GTATCTAA	0.262
ATCAGTTC	0.169
AGTTTTTA	0.192
CCTGGCAG	-0.155
CCTTACAA	0.0042
